Source: PubChem BioAssay AID1508623 (National Center for Advancing Translational Sciences (NCATS), 2021)
Among all 48,000 compounds or so, about 450 (0.94%) were called active. Not shown: some 19% with an inconclusive outcome. Calls come from the whole dose curve; as a rule, active = well fitted inhibition curve with a large enough effect; inconclusive = small, poorly fitted or top-dose-only effect; inactive = no such curve, though single readings can be large or run the other way. The list shows a part of the results.

assay: Primary qHTS for Identification of Small Molecule Inhibitors of Huntingtin Promoter Activity; conditions: HEK293 HTT promoter firefly luciferase reporter (activity 0% = vehicle and -100% = no light), 24 h; series mostly up to 57.5 µM; activity change, negative = inhibition: at the top concentration; note: nearly all actives have a fitted effect of over 50% in size
Procedure, shortened: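 HEK293 cells carrying firefly luciferase reporters were seeded at 2,500 per well in Opti-MEM and cultured for 24 h. They were then treated with compounds at up to 57.5 uM final for 24 h at 37 degrees C before Dual-Glo luminescence readout.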

Activity change, negative = inhibition, inactive:
CC(=O)c1cc(-c2ccccc2)n(CCC(=O)NCCc2ccccc2)c1C -23.8%
Cc1cccc(CCNC(=O)c2ccc3c(c2)nc2n3CCCCC2)c1 12%
Cc1nc2c(-c3ccc(F)cc3)c(C)nn2c(C)c1CCC(=O)N1CCN(c2ccc(F)cc2)CC1 -13.5%
Cc1oc(-c2cccc(Cl)c2)nc1CSc1nnc(C)n2c1cc1occc12 -0.294%
COc1ccccc1N1CCN(C(=O)Cn2cnc3sc(C)c(S(=O)(=O)N4CCC(C)CC4)c3c2=O)CC1 -5.52%
CCc1cccc(C)c1NC(=O)Cn1c(=O)n(-c2cccc(C)c2)c(=O)c2c1c1cc(C)ccc1n2C 9.99%
COc1ccc(Cl)cc1N(C)C(=O)Cc1noc2ccc(C)cc12 -26.1%
C/C(=C1\CCOC(=O)S1)N(C=O)Cc1cnc(C)nc1N -0.942%
CCOC(=O)c1cc(NC(=O)c2ccc(OC)cc2)c(=O)n2c1oc1ccc(Cl)cc12 -2.38%
CCn1c(CNC(=O)C23CC4CC(CC(C4)C2)C3)nnc1SCC(=O)Nc1ccc(F)cc1 -27.8%
CC1Cc2ccccc2N1C(=O)CSc1nnc(-c2cccc(Cl)c2)o1 (configuration not stated) 12.9%
O=c1[nH]c2ccc(NCc3ccccc3F)cc2[nH]1 -1.38%
O=C(CCc1ccccc1)NCc1ccc2c(c1)CCN2C(=O)c1ccc(Cl)cc1 -5.91%
CCOc1ccc(CCNC(=O)c2cc3c(=O)n(C)c4ccccc4c3n2C)cc1 -5.77%
CCc1cccc(NC(=O)CC2Oc3ccc(C)cc3NC2=O)c1 (configuration not stated) -8.91%
O=C(NCCC1=CCCCC1)c1ccc2c(c1)N(Cc1ccc(Cl)cc1)C(=O)c1ccccc1S2=O (configuration not stated) -18.3%
N#Cc1c(N(CC(=O)O)CC(=O)O)sc(C(=O)O)c1CC(=O)O -11.2%
COc1ccc(-n2c(=O)c3c(c4cc(OC)ccc4n3C)n(C)c2=O)cc1 -11.2%
CCOc1ccc(NC(=O)Cn2cc(C(=O)c3ccc(CC)cc3)c(=O)c3ccc(C)nc32)cc1 3.11%
Cc1ccc(-n2c(=O)c3cccnc3n2CC(=O)NCc2ccc(F)cc2)cc1C -22.2%
Cc1ccc(CNC(=O)CN2CCCN(Cc3ccc(F)cc3)S2(=O)=O)cc1 -20%
CCOC(=O)C1=C(C)NC(=S)NC1c1cccc(O)c1 (configuration not stated) -8.71%
CCN(CC)S(=O)(=O)c1ccc2c(c1)N(CC(=O)Nc1c(C)cc(C)cc1C)C(=O)C1CCCN21 (configuration not stated) -7.55%
O=C(COc1ccccc1F)Nc1ccc(Cl)c(-c2nc3ccccc3[nH]2)c1 18.9%
COc1ccc(NC(=O)CSc2nccn2Cc2ccco2)cc1OC -10.5%
Cc1cc(C)c(/C=C/c2onc(C)c2S(=O)(=O)N2CCC(C(=O)Nc3ccc(Cl)c(C(F)(F)F)c3)CC2)c(C)c1 -22.1%
COc1ccccc1NC(=O)c1nc(SCc2ccc(F)cc2)ncc1Cl -6.61%
CCOC(=O)c1cnc2ccccc2c1Nc1ccc(N2CCOCC2)cc1 -12.8%
CCc1ccc(N2CCn3c2nc2c3c(=O)n(CCc3ccccc3)c(=O)n2C)cc1 -14.5%
Cc1cccc(Cn2c(=O)n(-c3ccc(Cl)c(Cl)c3)c(=O)c3c(C)c(C)sc32)c1 -6.38%
CCOCCc1nnc(NC(=O)C(=O)c2cc(C)n(-c3cccc(Cl)c3)c2C)s1 -14.3%
Clc1ccc(-c2nc3ccccn3c2Nc2ccc3c(c2)OCCO3)s1 13.8%
COc1ccc(NC(=O)c2sc3nc(C)c(C(=O)Nc4ccc(C)cc4C)c(-c4cccs4)c3c2N)cc1 -25.4%
CCOc1ccc(NC(=O)C(=O)NCCc2csc(-c3ccc(C)cc3)n2)cc1 7%
CCN(Cc1ccccc1)C(=O)Cn1c(=O)oc2cc(S(=O)(=O)N3CCCCCC3)ccc21 -26.7%
Cc1ccccc1CSc1cn(CC(=O)N2CCCC2)c2ccccc12 18.9%
CCC(=O)N1CCc2cc(S(=O)(=O)NCCC(=O)Nc3ccc(OC)c(OC)c3)ccc21 -9.41%
COc1cc(-c2nnn(CC(=O)NCc3ccccc3)n2)cc(OC)c1OC -4.72%
COc1ccc(NC(=O)CSc2nnc3c(C)cc4ccccc4n23)cc1 -0.666%
Cc1cnc2c(c1SCC(=O)NCc1ccc(F)cc1)c(=O)n(C)c(=O)n2C -10.7%
Cc1cccc(N2CCN(c3ncnc4c3c(-c3ccccc3)cn4-c3ccccc3)CC2C)c1 (configuration not stated) -17.9%
CCOc1ccc(-c2cc(C(=O)N3CCN(c4ccc(C)cc4)C(C)C3)c3ccccc3n2)cc1 (configuration not stated) 8.91%
CC(C)(C)c1ccc(OCC(=O)NC(Cc2c[nH]c3ccccc23)C(=O)O)cc1 (configuration not stated) -0.839%
COc1cccc(CNC(=O)CCCn2c(=O)c3cccn3c3cccnc32)c1OC 10.9%
CCCCn1nc(NC(=O)c2cccc(Cl)c2)c2cc3ccc(C)cc3nc21 -19.1%
CC(=O)Nc1ccc(NS(=O)(=O)c2cc3c4c(c2)CC(=O)N4CCC3)cc1 -1.47%
COc1cc(C(=O)NCCS(=O)(=O)N2CCN(c3ccccc3)CC2)cc(OC)c1OC -16.7%
COc1ccc(-c2cc3nc(C)c(CCC(=O)N4CCN(c5cc(C)ccc5C)CC4)c(C)n3n2)c(OC)c1 -19.6%
CCOc1ccc(NC(=O)CN2CCN(CC(=O)Nc3ccc(OC)cc3)CC2)cc1 -2.72%
COc1ccccc1/C=C/c1nc(C#N)c(N2CCN(c3ccccc3)CC2)o1 -8.64%
CN(C(=O)CSc1nc2ccc(NC(=O)COc3ccccc3Cl)cc2s1)c1ccccc1 -0.151%
Cc1ccc(Nc2c(-c3ccccc3O)nc3cc(C)ccn23)cc1 -28.4%
COc1ccc(-c2cc(C(F)(F)F)nc(NCCc3ccccc3)n2)cc1 7.76%
Cc1c(-c2ccc(Cl)cc2)c(=O)oc2c(CN3CCOCC3)c(O)ccc12 -28.7%
O=C(NCCc1ccccc1)c1cc2sccc2n1Cc1ccc(F)cc1 -8.51%
COC(=O)c1cccc(CN2C(=O)SC(Nc3ccc(Br)cc3)C2=O)c1 (configuration not stated) -22.1%
Cc1ccc(NC(=O)CSc2nc3ccc(NC(=O)c4ccco4)cc3s2)c(C)c1 -12.4%
CNC(=O)c1c(NC(=O)c2ccc(S(=O)(=O)N3CCCC(C)C3)cc2)sc2c1CCC2 (configuration not stated) -7.05%
CCCCOc1ccc(C(=O)Nc2onc3c2CCCC3)cc1 37.8%
Cc1cc(C)cc(NC(=O)Nc2cccs2)c1 24.7%
CCOC(=O)CN1C(C(=O)c2ccccc2)=C(OC(=O)c2ccccc2)c2ccccc2S1(=O)=O 12.9%
Cc1ccc(C)c(NC(=O)Cn2cnc3nc4c(cc3c2=O)CCCC4)c1 -4.59%
CCOC(=O)c1cccc(NC(=O)c2ccc3snnc3c2)c1 -3.52%
CCc1ccc(-n2c(N3CCN(c4cccc(C)c4C)CC3)nc3ccccc3c2=O)cc1 -28.3%
Cc1ccc(Nc2nc(N)nc(N)c2S(=O)(=O)c2ccccc2)cc1 -27%
COC(=O)c1sccc1S(=O)(=O)N(CC(=O)NCc1ccccc1)c1ccc(C)cc1 -19.9%
CC1CC(=O)NN=C1c1ccc(NCC(C)(C)NCC(O)COc2cc(Cl)ccc2C#N)cc1 (configuration not stated) 4.76%
COc1ccccc1C(=O)Nc1nc(-c2ccc(Br)cc2)ns1 -4.03%
Cc1nc2ccn(Cc3cccnc3)c(=O)c2cc1C(=O)N1CCN(c2ccccc2)CC1 9.14%
Oc1ccccc1-c1nnco1 12.9%
CCOc1ccc(-c2cc(C(=O)NCCc3ccccc3)c3c(-c4ccc(C)cc4)[nH]nc3n2)cc1 18.4%
CCN(CC)c1cc(C)c2cc(NC(=O)/C=C/c3ccccc3OC(C)C)ccc2n1 -17.6%
Cc1cc(C)c2c(=O)c3c(oc2c1)C(=O)N(Cc1ccco1)C3c1ccc(F)cc1 (configuration not stated) -22.7%
CC(=O)N1CCc2c(sc3c2c(=O)n(-c2cccc(Cl)c2)c(=O)n3Cc2ccc(F)cc2Cl)C1 0%
Cc1nn(C)c2c1c(C(F)(F)F)cc(=O)n2CC(=O)N1CCN(c2ccccc2F)CC1 -2.1%
O=C(NCc1ccc2c(c1)CCN2C(=O)c1ccc(Cl)cc1)c1ccco1 -11.5%
CCOC(=O)c1c(NC(=O)/C=C/c2ccc(OCC)cc2)sc2c1CCCC2 -3.3%
O=C(Cn1c(=O)n(-c2ccccc2)c(=O)c2c3c(sc21)CCCC3)Nc1ccccc1 -14.4%
O=C(O)CSc1nnc(-c2ccc(O)cc2)o1 -14.8%
CCOC(=O)c1noc2nc(C)n(CC(=O)Nc3ccc(OC)c(Cl)c3)c(=O)c12 1.63%
Cc1cc(N2CCC(C(=O)Nc3ccc(Cl)cc3)CC2)n2nc(C)c(-c3ccc(Cl)cc3)c2n1 -10.3%
CCOC(=O)CSc1nnc2n(-c3ccccc3)c(=O)c3c4c(sc3n12)COC(C(C)C)C4 (configuration not stated) -0.755%
Cc1cc2c(cc3c(=O)n(CC(=O)NCc4ccccc4Br)ncn32)s1 1.76%
Cc1ccc(-n2nc(C)c3c(C(=O)O)cc(C)nc32)cc1 -15.4%
CC(CNC(=O)c1ccc2c(c1)nc1n2CCOC1)c1ccccc1 (configuration not stated) 64.9%
CC(C)NC(=O)CSc1nc2ccccc2c(=O)n1Cc1ccc(C(=O)NC(C)C)cc1 1.59%
O=C(CCS(=O)(=O)c1cccc2nonc12)Nc1cccc(F)c1 -0.381%
O=C(CSc1nc(=O)[nH]c2c1CCC2)NCc1ccc(Cl)cc1 -9.24%
COc1ccc(CN(Cc2ccco2)c2cnc(S(C)(=O)=O)nc2C(=O)Nc2ccc(C)c(C)c2)cc1 -18.1%
COC(=O)c1ccc(C(=O)Nc2ccc(-c3nc4cc(NC(=O)c5ccc(C(=O)OC)cc5)ccc4o3)cc2)cc1 -0.0438%
CCSc1ncc(Cl)c(C(=O)Nc2ccc(S(=O)(=O)Nc3nccc(C)n3)cc2)n1 -15.2%
Cc1ccc(Cl)cc1NC(=O)Cn1cc2c(n1)CCCCC2 -6.16%
Nc1ccc(S(=O)(=O)Nc2nccs2)cc1 2.16%
O=C(CCC1N=C2c3ccccc3N=C(SCc3ccccc3Cl)N2C1=O)N1CCN(c2ccccc2)CC1 (configuration not stated) -28%
COC(=O)c1ccc(NC(=O)c2cccc3c2C(=O)N(C2CCCCC2)C3)cc1 0.925%
COC(=O)CC1Oc2ccc(C)cc2-n2cc(-c3ccc(F)cc3)nc21 (configuration not stated) -20.7%
COc1ccc(N2CCN(C(=O)c3cc(NS(=O)(=O)c4ccc(F)cc4)ccn3)CC2)cc1 -11.7%
